To fix the notation:
B1: TEV protease; numbered along this chain (parent)
chain: MGESLFKGPRDYNPISSSICHLTNESDGHTTSLYGIGFGPFIITNKHLFRRNNGTLVVQSLHGVFKVKDTTTLQQHLVDGRDMIIIRMPKDFPPFPQKLKFREPQREERICLVTTNFQTKSMSSMVSDTSCTFPSGDGIFWKHWIQTKDGQCGSPLVSTRDGFIVGIHSASNFTNTNNYFTSVPKNFMELLTNQEAQQWVSGWRLNADSVLWGGHKVFMVKPEEPFQPVKEATQL

The variants in the experiment derive from B1. In words: raw area under fraction-flipped curve 0-4 h after induction (AUC4h, not background-subtracted), DNA-recorder readout of cleavage of the substrate (dimensionless); higher = more cleavage of the substrate by the protease variant. The note with it: temperature: 34 °C; time window: 0-4 h after rhamnose induction. The procedure: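 In vivo DNA recorder in E. coli TOP10(DE3) ΔrhaA at 34 °C. Each TEVp single-site mutant (parent TEVp 0) is paired with a single-site variant of the 7-mer TEVs (canonical ENLYFQ|S). The substrate sits between flexible linkers in a Bxb1-sfGFP-TEVs-SsrA fusion, so cleavage stabilises Bxb1 and speeds flipping of a recombination array, read by NGS. The value is the raw area under the fraction-flipped curve over 0-4 h after rhamnose induction (AUC4h), with ≥20 reads per time point. It is not background-subtracted; inactive controls average about 0.047.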

The list shows a part of the results. Sequences were assembled here from the parent chain. Inactive controls read about 0.05.
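Note: Bxb1 expression induced with 0.2% (w/v) L-rhamnose at OD600 near 0.5, cultures sampled hourly, flipped fraction per protease–substrate barcode pair counted by paired-end Illumina sequencing.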

Regarding MGESLFKGPRDYNPISSSICHLTNESDGHTTSLYGIGFGPFIITNKHLFRRNNGTLVVQSLHGVFKVKDTTTLQQHLVDGRDMIIIRMPKDFPPFPQKLKFREPQREERICLVTTNFQKKSMSSMVSDTSCTFPSGDGIFWKHWIQTKDGQCGSPLVSTRDGFIVGIHSASNFTNTNNYFTSVPKNFMELLTNQEAQQWVSGWRLNADSVLWGGHKVFMVKPEEPFQPVKEATQL [T119K], the “area with substrate EALYFQS” value stood at 0.124, the “area with substrate ECLYFQS” value amounted to 0.138, the “area with substrate EILYFQS” value stood at 0.107 and the “area with substrate EKLYFQS” value amounted to 0.168. Further, the “area with substrate ELLYFQS” value was found to be 0.0899, the “area with substrate ERLYFQS” value came to 0.131, the “area with substrate ESLYFQS” value amounted to 0.0773 and the “area with substrate EYLYFQS” value came to 0.101.
As for MGESLFKGPRDYNPISSSICHLTNESDGHTTSLYGIGFGPFIITNKHLFRRNNGTLVVQSLHGVFKVKDTTTLQQHLVDGRDMIIIRMPKDFPPFPQKLKFREPQREERICLVTTNFQNKSMSSMVSDTSCTFPSGDGIFWKHWIQTKDGQCGSPLVSTRDGFIVGIHSASNFTNTNNYFTSVPKNFMELLTNQEAQQWVSGWRLNADSVLWGGHKVFMVKPEEPFQPVKEATQL [T119N], the “area with substrate EALYFQS” value was 0.188, the “area with substrate ECLYFQS” value is 0.0834, the “area with substrate EKLYFQS” value is 0.132 and the “area with substrate ELLYFQS” value was determined as 0.0822. In addition, the “area with substrate EPLYFQS” value amounted to 0.165, the “area with substrate EQLYFQS” value amounted to 0.171, the “area with substrate ERLYFQS” value came out at 0.136 and the “area with substrate ESLYFQS” value was determined as 0.182. Also, the “area with substrate ETLYFQS” value was determined as 0.147, the “area with substrate EVLYFQS” value amounted to 0.0974, the “area with substrate EWLYFQS” value was 0.127 and the “area with substrate EYLYFQS” value amounted to 0.0909.
Turning to MGESLFKGPRDYNPISSSICHLTNESDGHTTSLYGIGFGPFIITNKHLFRRNNGTLVVQSLHGVFKVKDTTTLQQHLVDGRDMIIIRMPKDFPPFPQKLKFREPQREERICLVTTNFQTKSMSSMDSDTSCTFPSGDGIFWKHWIQTKDGQCGSPLVSTRDGFIVGIHSASNFTNTNNYFTSVPKNFMELLTNQEAQQWVSGWRLNADSVLWGGHKVFMVKPEEPFQPVKEATQL [V126D], the “area with substrate EALYFQS” value stood at 0.0977, the “area with substrate ECLYFQS” value stood at 0.161, the “area with substrate EDLYFQS” value came to 0.104 and the “area with substrate EELYFQS” value was found to be 0.148. Also, the “area with substrate EFLYFQS” value came out at 0.0879, the “area with substrate EGLYFQS” value worked out at 0.107, the “area with substrate EHLYFQS” value is 0.111 and the “area with substrate EILYFQS” value worked out at 0.0996. The “area with substrate ELLYFQS” value was 0.0829, the “area with substrate ESLYFQS” value was 0.0891, the “area with substrate ETLYFQS” value was found to be 0.105 and the “area with substrate EVLYFQS” value came out at 0.0682.
In the case of MGESLFKGPRDYNPISSSICHLTNESDGHTTSLYGIGFGPFIITNKHLFRRNNGTLVVQSLHGVFKVKDTTTLQQHLVDGRDMIIIRMPKDFPPFPQKLKFREPQREERICLVTTNIQTKSMSSMVSDTSCTFPSGDGIFWKHWIQTKDGQCGSPLVSTRDGFIVGIHSASNFTNTNNYFTSVPKNFMELLTNQEAQQWVSGWRLNADSVLWGGHKVFMVKPEEPFQPVKEATQL [F117I], the “area with substrate EALYFQS” value was found to be 0.106, the “area with substrate ECLYFQS” value was determined as 0.108, the “area with substrate EGLYFQS” value came out at 0.0441 and the “area with substrate EHLYFQS” value came out at 0.12. Further, the “area with substrate EQLYFQS” value stood at 0.0874, the “area with substrate ERLYFQS” value stood at 0.102, the “area with substrate ESLYFQS” value is 0.0903 and the “area with substrate EVLYFQS” value is 0.0812. The “area with substrate EYLYFQS” value amounted to 0.0906.
On to MGESLFKGPRDYNPISSSICHLTNESDGHTTSLYGIGFGPFIITNKHLFRRNNGTLVVQSLHGVFKVKDTTTLQQHLVDGRDMIIIRMPKDFPPFPQKLKFREPQREERICLVTTNFQTKSMSSMVSDTSCTFPSGGGIFWKHWIQTKDGQCGSPLVSTRDGFIVGIHSASNFTNTNNYFTSVPKNFMELLTNQEAQQWVSGWRLNADSVLWGGHKVFMVKPEEPFQPVKEATQL [D137G], for which the “area with substrate EALYFQS” value is 0.113, the “area with substrate ECLYFQS” value was determined as 0.0868, the “area with substrate EDLYFQS” value was 0.106 and the “area with substrate EELYFQS” value amounted to 0.108. The “area with substrate EFLYFQS” value was 0.113, the “area with substrate EGLYFQS” value stood at 0.101, the “area with substrate EHLYFQS” value is 0.073 and the “area with substrate EILYFQS” value was found to be 0.0715. In addition, the “area with substrate ELLYFQS” value is 0.0753, the “area with substrate EMLYFQS” value is 0.119, the “area with substrate EPLYFQS” value came out at 0.108 and the “area with substrate EQLYFQS” value amounted to 0.0914. Besides, the “area with substrate ESLYFQS” value is 0.0903, the “area with substrate ETLYFQS” value amounted to 0.127, the “area with substrate EVLYFQS” value was 0.113 and the “area with substrate EWLYFQS” value was 0.0834. For the same variant, the “area with substrate EYLYFQS” value was 0.0927.
On to MGESLFKGPRDYNPISSSICHLTNESDGHTTSLYGIGFGPFIITNKHLFRRNNGTLVVQSLHGVFKVKDTTTLQQHLVDGRDMIIIRMPKDFPPFPQKLKFREPQREERICLVTTNFQTKSMSSFVSDTSCTFPSGDGIFWKHWIQTKDGQCGSPLVSTRDGFIVGIHSASNFTNTNNYFTSVPKNFMELLTNQEAQQWVSGWRLNADSVLWGGHKVFMVKPEEPFQPVKEATQL [M125F], for which the “area with substrate EALYFQS” value is 0.132, the “area with substrate ECLYFQS” value is 0.0762, the “area with substrate EFLYFQS” value amounted to 0.096 and the “area with substrate EGLYFQS” value is 0.128. In addition, the “area with substrate EILYFQS” value was 0.0886, the “area with substrate EKLYFQS” value was found to be 0.131, the “area with substrate ELLYFQS” value came out at 0.0968 and the “area with substrate ESLYFQS” value was found to be 0.115. Besides, the “area with substrate EVLYFQS” value turned out to be 0.116.
As for MGESLFKGPRDYNPISSSICHLTNESDGHTTSLYGIGFGPFIITNKHLFRRNNGTLVVQSLHGVFKVKDTTTLQQHLVDGRDMIIIRMPKDFPPFPQKLKFREPQREERICLVTTNFQTKSMSSMVRDTSCTFPSGDGIFWKHWIQTKDGQCGSPLVSTRDGFIVGIHSASNFTNTNNYFTSVPKNFMELLTNQEAQQWVSGWRLNADSVLWGGHKVFMVKPEEPFQPVKEATQL [S127R], the “area with substrate EALYFQS” value was 0.0928, the “area with substrate ECLYFQS” value came to 0.138, the “area with substrate EELYFQS” value came out at 0.139 and the “area with substrate EHLYFQS” value worked out at 0.136. The “area with substrate EILYFQS” value was 0.0856, the “area with substrate EKLYFQS” value is 0.119, the “area with substrate ELLYFQS” value came to 0.0947 and the “area with substrate EQLYFQS” value worked out at 0.135. The “area with substrate ERLYFQS” value worked out at 0.106 and the “area with substrate ESLYFQS” value worked out at 0.109.
With MGESLFKGPRDYNPISSSICHLTNESDGHTTSLYGIGFGPFIITNKHLFRRNNGTLVVQSLHGVFKVKDTTTLQQHLVDGRDMIIIRMPKDFPPFPQKLKFREPQREERICLVTTNFQTKSMSSMVNDTSCTFPSGDGIFWKHWIQTKDGQCGSPLVSTRDGFIVGIHSASNFTNTNNYFTSVPKNFMELLTNQEAQQWVSGWRLNADSVLWGGHKVFMVKPEEPFQPVKEATQL [S127N], the “area with substrate EALYFQS” value is 0.12, the “area with substrate ECLYFQS” value turned out to be 0.124, the “area with substrate EDLYFQS” value stood at 0.144 and the “area with substrate EELYFQS” value was 0.139. Also, the “area with substrate EGLYFQS” value worked out at 0.102, the “area with substrate EKLYFQS” value worked out at 0.0962, the “area with substrate EMLYFQS” value amounted to 0.118 and the “area with substrate EPLYFQS” value was found to be 0.139. In addition, the “area with substrate EQLYFQS” value was 0.148, the “area with substrate ERLYFQS” value was found to be 0.1, the “area with substrate ESLYFQS” value is 0.106 and the “area with substrate EVLYFQS” value is 0.0908. The “area with substrate EYLYFQS” value worked out at 0.117.
With MGESLFKGPRDYNPISSSICHLTNESDGHTTSLYGIGFGPFIITNKHLFRRNNGTLVVQSLHGVFKVKDTTTLQQHLVDGRDMIIIRMPKDFPPFPQKLKFREPQREERICLVTTNFQTKSMSSMVSDTSCTFASGDGIFWKHWIQTKDGQCGSPLVSTRDGFIVGIHSASNFTNTNNYFTSVPKNFMELLTNQEAQQWVSGWRLNADSVLWGGHKVFMVKPEEPFQPVKEATQL [P134A], the “area with substrate EALYFQS” value is 0.131, the “area with substrate EELYFQS” value is 0.13, the “area with substrate EKLYFQS” value was determined as 0.0941 and the “area with substrate EQLYFQS” value came out at 0.135. For the same variant, the “area with substrate ESLYFQS” value was 0.0976, the “area with substrate EVLYFQS” value was 0.114 and the “area with substrate EYLYFQS” value was determined as 0.105.

The record behind these values is the supplement of paper PMC12217912.
